According to the supplement of paper PMC3334620:
In all, about 33,000 sequences were measured (“E-score (-0.5 to 0.5)”: median about -0.021, highest 2% from about 0.32 on). This is one part of the list.

target: T1, Zap1 (UniProt P47043); assay: PBM E-score (8-mer binding enrichment) (E-score (-0.5 to 0.5)); higher = stronger / more preferred TF binding; most listed sequences are background and not binding sites; conditions: protein concentration: 200 nM; construct: GST-full length
T1 sequence: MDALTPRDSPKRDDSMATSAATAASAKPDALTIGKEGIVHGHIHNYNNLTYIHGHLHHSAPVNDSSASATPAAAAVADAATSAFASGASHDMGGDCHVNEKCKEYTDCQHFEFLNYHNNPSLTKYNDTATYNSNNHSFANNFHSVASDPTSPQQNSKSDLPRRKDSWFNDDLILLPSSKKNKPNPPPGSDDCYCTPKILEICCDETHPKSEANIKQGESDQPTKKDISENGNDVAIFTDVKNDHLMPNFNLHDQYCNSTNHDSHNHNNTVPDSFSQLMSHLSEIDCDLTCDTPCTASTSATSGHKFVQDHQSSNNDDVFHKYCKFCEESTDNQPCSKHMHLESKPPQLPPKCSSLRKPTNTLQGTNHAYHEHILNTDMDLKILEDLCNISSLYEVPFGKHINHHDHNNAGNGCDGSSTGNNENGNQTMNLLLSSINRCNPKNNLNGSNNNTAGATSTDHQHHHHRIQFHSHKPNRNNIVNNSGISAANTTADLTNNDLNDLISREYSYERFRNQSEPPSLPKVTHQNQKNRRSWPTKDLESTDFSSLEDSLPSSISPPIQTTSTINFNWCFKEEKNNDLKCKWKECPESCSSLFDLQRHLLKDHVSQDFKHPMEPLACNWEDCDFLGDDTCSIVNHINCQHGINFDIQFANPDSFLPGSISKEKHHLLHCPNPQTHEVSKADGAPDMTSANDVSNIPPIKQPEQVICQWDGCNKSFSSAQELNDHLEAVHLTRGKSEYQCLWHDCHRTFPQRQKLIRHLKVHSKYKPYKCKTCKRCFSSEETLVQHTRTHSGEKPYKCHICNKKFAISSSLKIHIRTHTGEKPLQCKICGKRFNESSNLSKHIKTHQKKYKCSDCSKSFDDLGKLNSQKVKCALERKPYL
In short: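 For each ungapped eight-base word taken together with its reverse complement, the Universal PBM Analysis Suite assigned an E-score. Binding data came from GST-tagged yeast transcription factors, applied at about 100-200 nM, on universal all-10-mer Agilent arrays made double-stranded by primer extension. Fluorescent anti-GST marked bound protein, and scans were normalised with masliner.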

| Sequence | PBM E-score |
| --- | --- |
| AATCTATA | 0.17 |
| CGGGGTGA | 0.316 |
| AGCGAGGC | -0.266 |
| AGTCCGCC | -0.122 |
| CACGTACA | -0.0299 |
| ATAGTAAG | -0.0126 |
| CAGCTTCG | -0.117 |
| GCGAGTTA | 0.0927 |
| GACTTCGA | -0.149 |
| CGCAACCG | 0.281 |
| GATTTAGA | 0.0863 |
| CGTTTTAG | 0.00411 |
| GGACCACA | 0.101 |
| AAAGTGTT | 0.0802 |
| GCTCAGGA | -0.169 |
| ACGAAGTA | -0.344 |
| ACTCGGGG | -0.179 |
| CGGCAAAC | 0.00436 |
| ACATCGCT | -0.0744 |
| GGACTGTA | -0.0595 |
| AGGTTCCA | 0.154 |
| AATGCGGT | 0.125 |
| CCTCCAGA | 0.161 |
| AGGCAGAT | -0.158 |
| TAATTAAA | 0.0873 |

| Sequence | PBM E-score |
| --- | --- |
| GGAGTCCA | -0.0805 |
| ATCATTGG | -0.0596 |
| CATCCCTC | -0.0744 |
| TAAATGCA | 0.176 |
| AAGAGAAG | -0.0962 |
| AGCGTTGC | -0.207 |
| TAATCGCA | 0.113 |
| AGTCAGAG | -0.208 |
| AGTGTTGC | -0.0481 |
| CAACGGCG | -0.187 |
| ACTCCGCC | -0.282 |
| ACTCACCC | -0.0932 |
| TAGAACGA | 0.00851 |
| AGGTTCGC | -0.211 |
| AATATGTA | 0.154 |
| ACGACAGG | -0.00506 |
| TGAACGAA | -0.0226 |
| CAAGTGAA | 0.102 |
| ATACACCC | 0.154 |
| GATTGCAA | 0.0195 |
| ACAGTAGC | -0.155 |
| AGATGCGC | -0.266 |
| CTGAGAGC | -0.316 |
| AGAGGTCC | 0.201 |
| CGAACTAC | -0.00887 |

| Sequence | PBM E-score |
| --- | --- |
| ACTATAAC | 0.21 |
| GCCGACGA | -0.0808 |
| ACGTAGAC | -0.223 |
| CGATTCGC | -0.0502 |
| CCGCATAA | 0.212 |
| CCAAGAAG | 0.0253 |
| AAATCTTA | 0.107 |
| CTTTCGTC | -0.0866 |
| CGGCACTA | -0.15 |
| ACTATTCG | 0.00801 |
| CTGACATA | -0.067 |
| ACCGAGCC | -0.278 |
| TACTAGGA | 0.051 |
| CCAATCGG | -0.148 |
| AGGACACT | -0.0837 |
| AGAAAAGC | -0.0239 |
| GGCGCACA | -0.287 |
| GACGAGAA | -0.00906 |
| TAATATCA | 0.0712 |
| CGTAAAGC | -0.225 |
| TTGGGAAA | 0.163 |
| CTCATCCA | -0.0641 |
| ATCTTACA | -0.00376 |
| CCCGGTAG | 0.0897 |
| GTGCCACA | -0.29 |

| Sequence | PBM E-score |
| --- | --- |
| AAAGGTCA | 0.449 |
| ATGTTGCA | -0.121 |
| GGGACGAC | -0.145 |
| TACCATAA | 0.367 |
| AGCGACGA | -0.256 |
| TACAATAA | 0.212 |
| AGAGACCG | 0.124 |
| ATTGTCAC | 0.108 |
| GCCCAATA | 0.0964 |
| CCTAACCA | 0.309 |
| GGGTAGCA | 0.186 |
| TCACCAGA | 0.015 |
| GGTCGTTA | 0.159 |
| CCCCGCTA | 0.00458 |
| AGGCGGCG | -0.125 |
| CACTGCCC | -0.19 |
| CATCCGAA | 0.068 |
| CGGCCGTC | -0.0777 |
| AAAGCGGA | -0.0151 |
| CTTGGAGC | -0.373 |
| GCACCTCC | -0.116 |
| GCCGTATA | 0.0734 |
| CATGGAGC | -0.0785 |
| CGTTAAAA | 0.0117 |
| ACTATCCC | -0.221 |

| Sequence | PBM E-score |
| --- | --- |
| CGGGTAAG | -0.078 |
| ACCCCCGG | -0.0785 |
| GGAACACA | 0.0058 |
| AAGAGCGC | -0.0346 |
| AACGGTAT | 0.0478 |
| CGCACAGC | -0.212 |
| CGCGGATC | -0.0146 |
| GCCCCTCC | -0.056 |
| AATGGGTA | 0.287 |
| CCCAGTAC | -0.124 |
| CCTGCATA | -0.0917 |
| AGGACTTA | -0.167 |
| AAGTAAGG | 0.0538 |
| TACTCGAA | -0.0192 |
| AAAGCATC | -0.115 |
| AGTTCCCC | -0.167 |
| AATCGACC | 0.0231 |
| GTGATCAC | 0.231 |
| ATGGGGAA | 0.0321 |
| AGTGAAGC | -0.0995 |
| AAGGGGGC | -0.336 |
| AGCTGAAC | -0.182 |
| AAATCTGG | 0.168 |
| GGTAAACA | 0.205 |
| ATATAATG | 0.0611 |

| Sequence | PBM E-score |
| --- | --- |
| ACTGTGGG | -0.145 |
| AGATTGCA | 0.0608 |
| CCGGGCAA | -0.2 |
| CGTAGATA | -0.197 |
| GCGACACA | -0.085 |
| CACCAGTC | -0.137 |
| ATCGTAGG | 0.0884 |
| GCGTTACC | 0.0732 |
| CCGCGAGC | -0.139 |
| GGGAGACA | -0.19 |
| AATGTGCC | -0.265 |
| GTGTCGCA | -0.0901 |
| CCCGCGTC | 0.0232 |
| TCCTTTAA | 0.0669 |
| GAGTAGCC | -0.029 |
| CGAGTGAC | -0.0196 |
| CGGGTTAC | 0.439 |
| ACTTTGCT | -0.225 |
| GCTGCAGC | -0.0886 |
| TAAGGTAA | 0.271 |
| GCGGATTA | 0.0247 |
| AACGGATC | 0.0545 |
| CGATTAGC | -0.148 |
| ATCATTCA | 0.107 |
| CGCTAGAG | -0.106 |

| Sequence | PBM E-score |
| --- | --- |
| CTTCAGGC | -0.133 |
| CAAGGGTG | 0.262 |
| GAGGTGTA | -0.163 |
| CTACCGTC | 0.145 |
| CTAGAGAG | -0.00179 |
| ACCCCTTA | 0.344 |
| GGAACGAA | 0.0755 |
| GTGTAAGA | -0.0244 |
| GCTTCGAA | 0.153 |
| AGACAACT | -0.0655 |
| ATATGTGG | 0.0354 |
| CTGCGCGA | -0.123 |
| GCCTTTAA | 0.0959 |
| AATTCGGC | -0.136 |
| CGTCATAC | 0.0441 |
| GAGAGAGA | -0.158 |
| CCGTCCCA | -0.0821 |
| ATGATAAT | 0.0564 |
| ATGCTCGA | -0.105 |
| GGCCTGGA | -0.146 |
| CACAAGTC | 0.0234 |
| CTTTGACA | 0.0496 |
